Reference: the GPR68 mutational scans of Howard et al. (2025)

B1: GPR68, Q15743 (parent)
chain: MGNITADNSSMSCTIDHTIHQTLAPVVYVTVLVVGFPANCLSLYFGYLQIKARNELGVYLCNLTVADLFYICSLPFWLQYVLQHDNWSHGDLSCQVCGILLYENIYISVGFLCCISVDRYLAVAHPFRFHQFRTLKAAVGVSVVIWAKELLTSIYFLMHEEVIEDENQHRVCFEHYPIQAWQRAINYYRFLVGFLFPICLLLASYQGILRAVRRSHGTQKSRKDQIQRLVLSTVVIFLACFLPYHVLLLVRSVWEASCDFAKGVFNAYHFSLLLTSFNCVADPVLYCFVSETTHRDLARLRGACLAFLTCSRTGRAREAYPLGAPEASGKSGAQGEEPELLTKLHPAFQTPNSPGSGGFPTGRLA

Columns and labels:
[1] = variants of: B1; assay: cAMP reporter score (Enrich2 score, wild type = 0); higher = more signal; HEK293T, FACS bins
[2] = variants of: B1; assay: surface expression score (Enrich2 score, wild type = 0); higher = more signal; HEK293T, FACS bins

For C172_F173insG, the cAMP reporter score ([1]; pH 5.5) was -0.805, the cAMP reporter score ([1]; pH 6) was -0.922 and the cAMP reporter score ([1]; pH 6, modulator: ogerin) was -1.5. For the same variant, the cAMP reporter score ([1]; pH 6.5, modulator: ogerin) was -1.48 and the surface expression score [2] was -0.574.

Variant MGNITADNSSMSCTIDHTIHQTLAPVVYVTVLVVGFPANCLSLYFGYLQIKARNELGVYLCNLTVADLFYICSLPFWLQYVLQHDNWSHGDLSCQVCGILLYENIYISVGFLCCISVDRYLAVAHPFRFHQFRTLKAAVGVSVVIWAKELLTSIYFLMHEEVIEDENQHRVCCEHYPIQAWQRAINYYRFLVGFLFPICLLLASYQGILRAVRRSHGTQKSRKDQIQRLVLSTVVIFLACFLPYHVLLLVRSVWEASCDFAKGVFNAYHFSLLLTSFNCVADPVLYCFVSETTHRDLARLRGACLAFLTCSRTGRAREAYPLGAPEASGKSGAQGEEPELLTKLHPAFQTPNSPGSGGFPTGRLA [F173C] has a cAMP reporter score ([1]; pH 5.5) of -1.68, a cAMP reporter score ([1]; pH 6) of -1.04 and a cAMP reporter score ([1]; pH 6, modulator: ogerin) of -1.4. The cAMP reporter score ([1]; pH 6.5, modulator: ogerin) was -0.245 and the surface expression score [2] was -1.17.

MGNITADNSSMSCTIDHTIHQTLAPVVYVTVLVVGFPANCLSLYFGYLQIKARNELGVYLCNLTVADLFYICSLPFWLQYVLQHDNWSHGDLSCQVCGILLYENIYISVGFLCCISVDRYLAVAHPFRFHQFRTLKAAVGVSVVIWAKELLTSIYFLMHEEVIEDENQHRVCDEHYPIQAWQRAINYYRFLVGFLFPICLLLASYQGILRAVRRSHGTQKSRKDQIQRLVLSTVVIFLACFLPYHVLLLVRSVWEASCDFAKGVFNAYHFSLLLTSFNCVADPVLYCFVSETTHRDLARLRGACLAFLTCSRTGRAREAYPLGAPEASGKSGAQGEEPELLTKLHPAFQTPNSPGSGGFPTGRLA [F173D] showed a cAMP reporter score ([1]; pH 5.5) of -1, a cAMP reporter score ([1]; pH 6) of -0.678 and a cAMP reporter score ([1]; pH 6, modulator: ogerin) of -1.52. The cAMP reporter score ([1]; pH 6.5, modulator: ogerin) was -0.937 and the surface expression score [2] was -1.38.

The least precise scores are not listed. Two further conditions of the source, in which the scores hardly spread, are not listed. Names with del lack the residues named; names with ins carry added residues between the positions named. For part of these data: How much ogerin was present is not stated here.
